In publication PMC4336329 (PLoS ONE, 2015):
Among all 310,000 compounds or so, about 14,000 (4.5%) showed an effect of 50% or more. The effect is printed as a negative number. Some of the results follow.

These compounds were tested against human ether-à-go-go-related gene (hERG) potassium channel (human, UniProt Q12809) (assay: primary screen, population patch clamp on CHO cells stably expressing hERG).
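Note: peak tail current of the secondary pulse compared with the same well before compound.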

Chain of human ether-à-go-go-related gene (hERG) potassium channel (Q12809 whole entry, looked up): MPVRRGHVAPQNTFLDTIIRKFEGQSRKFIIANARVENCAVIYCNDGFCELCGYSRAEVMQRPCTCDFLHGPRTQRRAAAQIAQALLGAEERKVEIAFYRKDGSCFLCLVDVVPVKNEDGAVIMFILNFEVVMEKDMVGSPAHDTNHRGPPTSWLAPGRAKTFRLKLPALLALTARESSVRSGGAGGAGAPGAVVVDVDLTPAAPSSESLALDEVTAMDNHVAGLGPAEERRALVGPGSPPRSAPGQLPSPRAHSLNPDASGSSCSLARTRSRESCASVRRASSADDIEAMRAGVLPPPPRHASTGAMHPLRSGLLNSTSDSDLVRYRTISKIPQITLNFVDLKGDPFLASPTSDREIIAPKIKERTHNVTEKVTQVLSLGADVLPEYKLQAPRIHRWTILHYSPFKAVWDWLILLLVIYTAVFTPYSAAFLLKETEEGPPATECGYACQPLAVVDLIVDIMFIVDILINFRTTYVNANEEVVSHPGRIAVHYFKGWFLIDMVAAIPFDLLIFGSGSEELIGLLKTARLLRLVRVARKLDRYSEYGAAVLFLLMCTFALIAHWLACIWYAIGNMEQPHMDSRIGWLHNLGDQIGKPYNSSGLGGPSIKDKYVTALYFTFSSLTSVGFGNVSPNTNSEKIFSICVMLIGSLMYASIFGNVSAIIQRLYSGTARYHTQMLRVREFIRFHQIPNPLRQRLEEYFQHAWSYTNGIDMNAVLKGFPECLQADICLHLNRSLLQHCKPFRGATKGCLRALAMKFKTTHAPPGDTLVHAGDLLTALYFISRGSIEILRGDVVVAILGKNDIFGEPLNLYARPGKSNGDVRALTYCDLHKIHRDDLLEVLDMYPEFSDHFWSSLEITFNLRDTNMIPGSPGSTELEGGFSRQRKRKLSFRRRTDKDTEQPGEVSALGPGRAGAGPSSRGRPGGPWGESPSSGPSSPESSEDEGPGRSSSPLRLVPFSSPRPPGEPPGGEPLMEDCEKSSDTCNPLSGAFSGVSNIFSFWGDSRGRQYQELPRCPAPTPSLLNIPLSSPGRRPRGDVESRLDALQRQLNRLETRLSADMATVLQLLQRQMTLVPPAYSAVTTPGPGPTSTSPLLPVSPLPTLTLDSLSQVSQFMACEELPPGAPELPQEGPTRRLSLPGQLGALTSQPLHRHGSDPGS

Row | Compound | hERG current change (%, negative = inhibition) at 10uM [%]
1 | CCCCCCOc1ccc(/C(C)=N/NC2=NCCN2)cc1 | -19.9
2 | CCN(CC)C(=O)c1cc2cc([N+](=O)[O-])ccc2s1 | -55.5
3 | CCOc1ccc(C(C)=O)cc1COc1ccc(-c2nnco2)cc1 | 17.2
4 | COc1ccc2c(c1OC)C(=O)N1c3ccccc3N=C(c3ccc([N+](=O)[O-])cc3)CC21 (stereo not shown) | -38.7
5 | O=C(Nc1cc(-c2ccccc2)sc1C(=O)O)c1cccc(F)c1 | 33.5
6 | CCCCSc1cc(C)nc(N)n1 | -1.73
7 | Cc1cccc(C(=O)N/C(=C\c2ccc(C)o2)C(=O)O)c1 | 14.2
8 | CSc1cccc(NC(=O)NNC(=O)C2CCN(S(=O)(=O)N(C)C)CC2)c1 | 22.5
9 | O=C(NCCn1cc(SCc2ccccc2)c2ccccc21)c1c(F)cccc1F | 0.607
10 | Cc1ccccc1NC(=O)CSc1n[nH]c(-c2ccccn2)n1 | -21.6
11 | COc1ccc(S(=O)(=O)N2CCCCC2)cc1NC(=O)CNc1ccccc1C(C)=O | -15.2
12 | Cn1c(COc2ccc(F)cc2)nnc1SCC(=O)NC1CC1 | -15.1
13 | Nc1nc(SCC(=O)NCc2ccccc2)[nH]c(=O)c1NC(=O)c1ccccc1F | 22.4
14 | COc1ccc(CCNC(=O)CCCOc2ccc(C)cc2)cc1OC | -4.77
15 | O=C(CCN1C(=O)c2ccccc2S1(=O)=O)Nc1ccccc1 | -1.82
16 | Cc1ccc(C)c(S(=O)(=O)N2CCN(CC(=O)Nc3sccc3C#N)CC2)c1 | -57.7
17 | Cc1nnc2ccc(-c3cccc(NC(=O)c4ccc(Cl)nc4)c3)nn12 | -56.7
18 | Cc1cc(Cl)c2ccc3ccccc3c2n1 | 11.6
19 | C=CCNC(=O)NC(=O)Cn1c(=O)c2c(ncn2CC)n(Cc2ccccc2)c1=O | -1.06
20 | CC(C)(C)n1nnnc1C(c1cccs1)N(Cc1ccccc1)Cc1cccnc1 (stereo not shown) | -15.6

Row | Compound | hERG current change (%, negative = inhibition) at 10uM [%]
21 | O=C(CN1C(=O)COc2ccccc21)NC1CCCC1 | 17.2
22 | Cc1ccc(CC(=O)Nc2cccc(C)n2)cc1 | 1.71
23 | Cn1c(CNc2cccc(C(F)(F)F)c2)n[nH]c1=S | 15.7
24 | C/C=C/C=C(/NC(=O)c1ccccc1)C(=O)Nc1ccccc1 | 10.5
25 | COc1ccc(OCc2nc(N)nc(Nc3cccc(C)c3C)n2)cc1 | 18.6
26 | O=C(NCCN1CCN(Cc2ccc([N+](=O)[O-])cc2)CC1)C(=O)Nc1ccccc1 | -64.3
27 | CCOC(=O)CSC1=C(C#N)C(=O)NC(c2ccc(OC)c(OC)c2)S1 (stereo not shown) | 20.9
28 | CCCCn1c2nc3ccccc3nc2c2c(=O)n(-c3ccccc3)cnc21 | -9.59
29 | COC(=O)c1n[nH]n(-c2ccc(F)c(Cl)c2)c1=O | 9.84
30 | Cc1onc(-c2ccccc2)c1C(=O)Nc1cccc(C#N)c1 | -10.8
31 | COc1ccc(CCNC(=O)COc2coc(CN3c4ccccc4CC3C)cc2=O)cc1OC (stereo not shown) | 3.46
32 | COc1ccc(NC(=O)CCCC(=O)c2ccccc2)c(OC)c1 | 3.93
33 | Cc1ccc(N2CC(C(=O)OCC(=O)c3ccc(F)cc3)CC2=O)cc1 (stereo not shown) | 10.1
34 | O=C(Nc1ccc(N2CCCCC2)cc1)C(Cl)c1ccccc1 (stereo not shown) | 7.17
35 | CCn1cc(Br)c(C(=O)NN)n1 | 19.3
36 | Cc1ccc(S(=O)(=O)N2C(=O)c3cccc4cccc2c34)cc1 | 19.4
37 | CC(Oc1cccc2cccnc12)C(=O)N/N=C/c1ccccc1 (stereo not shown) | 3.83
38 | Cn1c(SCC(=O)c2cc(Cl)c(Cl)s2)nnc1-c1ccco1 | -60.5
39 | CC(=O)N1CC=CC1(CC(C)C)C(=O)NCCc1c[nH]c2ccccc12 (stereo not shown) | 4.11
40 | C[C@]12CC[C@H](OS(=O)(=O)[O-])CC1=CC[C@@H]1[C@@H]2CC[C@]2(C)C(=O)CC[C@@H]12.O.[Na+] | 36.3

Row | Compound | hERG current change (%, negative = inhibition) at 10uM [%]
41 | CN(CCCC1CCCC1)C(=O)CCc1nnc(-c2ccccc2)o1 | -22.7
42 | CN(C(=O)c1ccncc1)C1CCS(=O)(=O)C1 (stereo not shown) | -2.9
43 | COc1ccc(/C=N/n2cc(-c3ccc(OC)cc3)nc2N)cc1 | -3.96
44 | O=C(c1ccc(NC(=S)NCc2ccc(Cl)cc2)cc1)N1CCCCC1 | 1.04
45 | Cn1nc(Oc2ncc(C(F)(F)F)cc2Cl)cc1C(F)(F)F | 15.4
46 | Cc1nc([N+](=O)[O-])c(SCC(N)=O)n1Cc1ccccc1 | 27.8
47 | COc1ccc(-c2c(C)oc3cc(O)cc(O)c3c2=O)cc1OC | -7.42
48 | COC(=O)c1nnn(-c2nonc2N)c1CSc1nnc(N)s1 | -46.8
49 | Cc1ccc(NS(=O)(=O)c2ccc(-c3cnc(C4CC4)o3)cc2)c(C)c1 | 2.08
50 | CC(C)CNC(=S)NNC(=O)c1csc2c1CCCC2 | 7.34
51 | COc1ccccc1NS(=O)(=O)c1cccc(C(=O)N/N=C2\CC(=O)CC(C)(C)C2)c1 | -3.44
52 | Cc1ccc(S(=O)(=O)N2CC3CC(C2)c2cccc(=O)n2C3)cc1 (stereo not shown) | -22
53 | CN(C)S(=O)(=O)c1cccc(COC(=O)c2ccc(Cl)cc2O)c1 | -7.36
54 | C=C(C)CC1Nc2ccccc2NC1CC(=C)C (stereo not shown) | -1.86
55 | Cc1nc2ccc(NC(=O)c3ccc(Cl)nc3)cc2s1 | -13.3
56 | CCCn1nc(CC(=O)O)c2ccccc2c1=O | 6.35
57 | Cc1ccccc1CSc1nnc(-c2cccs2)n1Cc1ccco1 | -41.7
58 | O=C1N(c2ccccc2C(F)(F)F)O[C@]1(c1ccccc1)C1CCCCC1 | -5.05
